The values below come from PubChem BioAssay (NCI).

Several values for one entry are separate records, joined by “and”; a condition that tells them apart may be missing. Equal values may be shown once.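 Briefly, cells in 96-well plates were exposed to five compound concentrations for 48 h, and endpoints were estimated by linear interpolation. At the GI50, growth is halved. TGI is the concentration that stops growth completely.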

The subject of this experiment is NCI-H322M lung. In words: NCI anticancer screen, dose series, 48 h.
The compound `COc1ccc(/C=C/C(=O)c2cccc(C(=O)/C=C/c3ccc(OC)c(OC)c3)n2)cc1OC` had a TGI above 100 µM.

`COc1cccc2c1C(=O)c1c(O)c3c(c(O)c1C2=O)CC(O)(C(C)=O)CC3OC1CC([N+](C)(C)C)C(O)C(C)O1` (configuration not stated) showed a TGI above 100 µM.

Regarding `O=C1C(Cl)=C(Oc2ccccc2)C(=O)c2ccccc21`, the GI50 was 2.47 µM and the TGI stood at 8 µM.

Regarding `CCOC(=O)NC(Nc1cccc(F)c1)(C(F)(F)F)C(F)(F)F`, the TGI was above 100 µM.

`CC(=O)N1c2ccccc2C2=NN=C(N(C)C)SC21` (configuration not stated): the TGI amounted to 16.3 µM.

As to `CN(C(=O)C12C3C4C1C1C2C3C41C(=O)O)C(C)(C)C` (configuration not stated), the TGI is above 100 µM.

In the case of `CN(C)CCCNC(=O)c1cc(NC(=O)c2cc(NC(=O)CCCN3c4ccccc4C=Cc4ccccc43)cn2C)cn1C`, the GI50 was 1.82 µM and the TGI amounted to 8.31 µM.

`O=NN(CCCl)C(=O)NCc1ccc[n+]([O-])c1`: the TGI is above 100 µM.

`O=c1oc2ccccc2cc1-c1ccc([N+](=O)[O-])cc1` came in with a TGI above 100 µM.

In turn, `CC1=CCP(C(F)(F)F)P(C(F)(F)F)C1` (configuration not stated) registered a TGI above 100 µM.

As for `CCOC(=O)CCN1C(=O)c2ccc(NC(=O)C(=O)O)cc2S1(=O)=O`, the TGI is above 100 µM.

`COc1ccc(/C=C/C(=O)/C=C(/C=C/c2ccc(OC)c(OC)c2)OB(F)F)cc1OC`: the GI50 was 2.84 µM and the TGI was 44.5 µM.

With `CCOC(=O)N(C)CCC1CC=CC(=O)C1c1cccc(OC)c1OC` (configuration not stated), the TGI is above 100 µM.

Turning to `COc1nc(N)nc2c1n(C)c[n+]2C`, the TGI is above 100 µM.

Consider `O=C(CSc1nc2ccc([N+](=O)[O-])cc2[nH]1)Nc1cccc(C(F)(F)F)c1`, for which the GI50 is 3.11 µM and the TGI was found to be 12 µM.

As to `COc1ccccc1-c1n[nH]c(-c2ccccc2O)n1`, the TGI was above 100 µM.

For `COc1ccc(-n2c(-c3ccc(NC(=O)CCCl)cc3)nnc2-c2cc(OC)c(OC)c(OC)c2)cc1`, the GI50 was 3.15 µM and the TGI was 12.6 µM.

`CC1CC/C(=C\c2ccc(Cl)cc2)C(=O)/C1=C\c1ccc(Cl)cc1` (configuration not stated): the TGI was above 100 µM.

As to `c1ccc2c(c1)Sc1ccccc1N2CCCN1c2ccccc2Sc2ccccc21`, the TGI was above 100 µM.

The compound `O=C1CCCSCCCC(=O)CCCSCCC1` came in with a TGI above 100 µM.

As to `O=C(/C=C/c1ccsc1)c1cccs1`, the TGI is above 100 µM.

With `O=P(Oc1ccccc1)(Oc1ccccc1)C(O)c1ccccc1` (configuration not stated), the GI50 was 57.1 µM and the TGI was above 100 µM.

As to `CC(=O)CC(=O)CCCC(=O)Nc1ccc(Cl)cc1Cl`, the TGI is above 100 µM.

Regarding `CNc1nc2c(C)ccc3nc(N(C)C)nc-3c2n1C`, the TGI was above 10 µM.

In the case of `CC(C)(C)C(=O)Nc1ccccc1Br`, the TGI is above 100 µM.

In turn, `CCOC(=O)NC(OCCN(C)C)(C(F)(F)F)C(F)(F)F` registered a TGI above 100 µM.

The compound `CN(C)Cc1cc(N=Nc2c(Cl)cccc2Cl)ccc1O` gave a TGI above 100 µM.

The compound `Clc1ccccc1-c1nn2c(CCCCCCCCc3nnc4sc(-c5ccccc5Cl)nn34)nnc2s1` showed a TGI above 100 µM.

`O=C1c2scc(-c3ccc(F)cc3)c2-n2cccc21` gave a TGI above 100 µM.

With `COc1cc(-c2cc(C(=O)Nc3nc4ccccc4s3)nc3cc(-c4ccccc4)nn23)cc(OC)c1OC`, the GI50 is 67.5 µM and the TGI was above 100 µM.

Take `CCNCCNc1cc(-c2ccc(Cl)cc2)c(C#N)c2nc3ccccc3n12`: the GI50 was 1.68 µM and the TGI stood at 3.3 µM.

In the case of `N#Cc1c(Cl)cccc1Oc1ccc(S(=O)(=O)/N=C(\NO)Nc2ccc(Cl)cc2)cc1`, the TGI turned out to be 28.9 µM.

In the case of `COc1ccc(-c2nc3sccn3c2/C=C/C(=O)c2cc(OC)c(OC)c(OC)c2)cc1OC`, the GI50 was 4.31 µM and the TGI is 80.1 µM.

With `COc1cccc(-c2nc(-c3ccc(NS(=O)(=O)c4ccccc4)cc3)[nH]c2-c2ccnc(Br)c2)c1`, the GI50 is 3.22 µM and the TGI is above 100 µM.

Take `COc1ccc2c(CN3CCC(CO)CC3)cc3cc4c(cc3c2c1)OCO4`: the GI50 is 0.257 µM and the TGI was 3.56 µM.

For `O=[N+]([O-])c1ccc2c(c1)OCCOCCOc1ccc([N+](=O)[O-])cc1OCCOCCO2`, the TGI is above 100 µM.

Regarding `O=C(O)CSCC(=O)c1ccccc1`, the TGI is above 100 µM.

Compound `Cc1ccc(C)c(NC(=O)CC2C(=O)Nc3ccccc3S2(=O)=O)c1` (configuration not stated) returned a TGI above 100 µM.

Consider `O=C(c1ccccc1)c1ccc2cccc(O)c2n1`, for which the TGI was above 100 µM.

Turning to `COc1cc(/C=C2\CC(C)CC3C2=NN(c2ccccc2)C3c2cc(OC)c(OC)c(OC)c2)cc(OC)c1OC` (configuration not stated), the GI50 was 43.7 µM and the TGI was above 100 µM.

Consider `O=C1CSC2(CC(/C=C/c3cccc(Br)c3)=NN2c2cccc(S(=O)(=O)O)c2)N1c1nc2ccccc2s1` (configuration not stated), for which the TGI is above 100 µM.

For the compound `C=CC[P@@]1(=O)O[C@H](c2ccccc2)C(C)N1C(C)C` (some centres not stated), the TGI is above 100 µM.

As for `CC(C)(C)c1cc(C(C)(C)C)c(P=C(Cl)Cl)c(C(C)(C)C)c1` (configuration not stated), the TGI is above 100 µM.

`CC1=C(C(=O)Nc2ccc(F)c(Cl)c2)C(c2cccc(O)c2)NC(=S)N1` (configuration not stated): the GI50 was 18.2 µM and the TGI is above 50 µM.

Compound `Nc1ccc2c(c1)N(C(=O)CCCC(=O)N1CC(CCl)c3ccc(N)cc31)CC2CCl` (configuration not stated) yielded a TGI above 28.5 µM.

`O=c1oc2ccccc2c(Cl)c1Cl`: the GI50 is 14 µM and the TGI is 27.4 µM.

Compound `COC(=O)CC(SCCO)SCCO` displayed a TGI above 100 µM.

Consider `CN(OC(=O)CC(=O)c1ccccc1)C(=O)Cc1ccccc1`, for which the TGI was above 100 µM.

Compound `O=C1C2c3[nH]c4ccccc4c3C3CCSCC3C2C(=O)N1c1ccccc1` (configuration not stated) had a TGI above 100 µM.

The compound `CN(C)c1ccc(/C=C(\NC(=O)c2ccccc2)c2nc3ccccc3c(=O)o2)cc1` registered a TGI above 100 µM.

With `COC(=O)C1=C(O)C(C(=O)OC)[C@]2(O)[C@H](C(=O)OC)[C@H]1C[C@@H](c1ccc(O)cc1)[C@H]2C(=O)OC` (some centres not stated), the TGI was above 100 µM.

For the compound `NS(=O)(=O)c1ccc(NC(=S)/N=C/c2c(O)c3ccccc3[nH]c2=O)cc1`, the TGI was above 100 µM.

On to `CC(=O)C(C(=N)C#N)C(=O)Nc1ccccc1` (configuration not stated), for which the TGI is above 100 µM.

For the compound `COc1ccc(C[C@H]2NC[C@H](OC(C)=O)[C@H]2OC(C)=O)cc1`, the TGI stood at 0.639 µM.

Take `[N-]=[N+]=NC1(c2ccccc2)C(=O)c2cccc3c4ccccc4n(c23)C1=O` (configuration not stated): the TGI is above 100 µM.

`CCOC(=O)C12C3CCC1C2C(=O)C3` (configuration not stated) yielded a TGI above 100 µM.

On to `O=c1oc2ccccc2cc1-c1nc2ccccc2c(=O)[nH]1`, for which the TGI is above 100 µM.

With `O=C1C(c2ccc(Cl)cc2)=[N+]([O-])c2ccccc21`, the TGI came to 73.4 µM.

Turning to `Clc1ccc(Nc2ccnc(NCCNc3ccnc4cc(Cl)ccc34)n2)cc1`, the GI50 is 1.44 µM and the TGI was 2.94 µM.

Take `O=C1NC(=O)[C@@H](c2cn3c4c(cccc24)CCC3)[C@@H]1c1c[nH]c2ccccc12`: the GI50 is 0.491 µM and 0.632 µM; the TGI is > 10 µM and 34.3 µM.

Compound `COCC1N=C(c2ccc(OC)c(OCc3ccccc3)c2OC)O[C@H]1c1ccccc1` (some centres not stated) yielded a TGI of 57.3 µM.

In the case of `COc1cccc2c(Nc3ccc(C(=O)NCCNCCO)cc3)cc(-c3ccccc3)nc12`, the GI50 was 33 µM and the TGI was above 100 µM.

Take `COC(=O)C1=C(C(=O)OC)C2(c3ccccc3)c3ccccc3C(=O)C1N2C1CCCCC1` (configuration not stated): the TGI is above 100 µM.

Consider `CC1=NN(c2cccc(Cl)c2)C(=N/c2nc3ccccc3s2)/C1=C\c1ccccc1O`, for which the TGI was 97.4 µM.

As to `COC(=O)C1Cc2c(n(C)c3ccccc23)C(c2ccccc2)N1` (configuration not stated), the TGI was above 100 µM.

For `CCOC(=O)c1nc2cc(F)c(F)cc2nc1NCc1cc(OC)c(OC)c(OC)c1`, the TGI is above 100 µM.

`O=C(O)C1CCCN1Cc1c[nH]c2ccccc12` (configuration not stated) came in with a TGI above 100 µM.

Turning to `Cn1cc(-c2nc(-c3c[nH]c4ncccc34)cs2)c2cc(Cl)ccc21`, the GI50 is 2.64 µM and the TGI was found to be 47.7 µM.

With `CCCCC1=C(C(=O)N2CCOCC2)C2(OCCO2)C1Cl` (configuration not stated), the TGI was above 100 µM.

The compound `COc1ccc(/C=C/C(=N/NC(=O)N/N=C(/C=C/c2ccc(OC)cc2)C(C)C)C(C)C)cc1` registered a TGI above 100 µM.

The compound `COc1cc2c(cc1C)NC(=O)/C2=C\c1cccnc1` registered a TGI of 31.8 µM.

For `Cc1ccc(C)c(-n2c(-c3ccc(Br)cc3)csc2=NC(=O)c2ccccc2F)c1`, the GI50 was above 100 µM and the TGI is above 100 µM.

Turning to `O=C1NC(=O)C2=C1CCC2O` (configuration not stated), the TGI was above 100 µM.

In the case of `CCOC(=O)c1[nH]c2cccc3c2c1CC(Br)C3=O` (configuration not stated), the TGI is 22.6 µM.

The compound `COc1ccc2c(c1OC)C(Br)CCC(Br)(Br)C2=O` (configuration not stated) registered a TGI of 30.8 µM.

With `CCCCn1c(C)c(C)c2c1NN=C(C#N)S2(=O)=O`, the TGI is above 100 µM.

`N/C(=N\Nc1cccc(Cl)c1)c1cccnc1` came in with a TGI above 100 µM.

Turning to `COC1/C=C/C(C)C(C(C)C(OC)C(C)CCC(=O)C(C)C(CC(=O)O)OC)OC(=O)/C=C/C=C(\C)CC(OC)C(OC)C2=CC(=O)O[C@@H](C(C)C(OC)CC(OC)/C=C/C(C)C(O)C1)[C@H]2O` (some centres not stated), the TGI is above 1.07 µM.

For the compound `CCOC(=O)Oc1c(OC)cc(C(=O)c2ccc(OC)c(OC(=O)CCl)c2OC)cc1OC`, the GI50 is 3.41 µM and the TGI is above 100 µM.

For the compound `NCCCn1c2c(c3ccccc3c1=O)C(=O)c1cc3c(cc1-2)OCO3`, the GI50 was 1.17 µM and the TGI came out at 4.83 µM.

In turn, `CN(C)CCN1N=Nc2cccc3cccc1c23` registered a TGI above 100 µM.

`Brc1nc2c3ccccc3ncn2c1Br` came in with a TGI above 100 µM.

As for `N.N.NCCCCN.O=C([O-])CC(=O)[O-].O=C([O-])CC(=O)[O-].[Pt+4].[Pt+4]`, the GI50 is above 100 µM and the TGI is above 100 µM.

Regarding `CC(C)C(=O)CC(Sc1ccc(N)cc1)c1ccccc1` (configuration not stated), the TGI was above 100 µM.

As to `COP(=N[Si](C)(C)C)(OC)OC`, the TGI was above 100 µM.

For `Cc1cc(Cl)ccc1NC(=O)/C(Cc1nc2ccc(C(=O)c3ccccc3)cc2[nH]c1=O)=N/NC(=O)c1ccncc1`, the TGI is above 100 µM.

`O=S(=O)(O)c1ccc(N=Nc2c(O)ccc3ccccc23)cc1`: the TGI was above 100 µM.

Take `CC1=C2C(=CC(C)(CO)C2O)C(=O)C(C)(O)C12CC2` (configuration not stated): the TGI is 0.0677 µM.

For the compound `Cc1cc(S(=O)(=O)Nc2nnc(-c3ccco3)c(-c3ccco3)n2)c(SCc2ccccc2)cc1Cl`, the GI50 is 21.6 µM and the TGI is 59.8 µM.
